# Data from ChEMBL document CHEMBL4888484, “Replenishing the malaria drug discovery pipeline: Screening and hit evaluation of the MMV Hit Generation Library 1 (HGL1) against asexual blood stage Plasmodium falciparum ,using a nano luciferase reporter read-out” (2022).
# Out of some 150,000 compounds screened, about 540 (0.36%) showed an effect of 50% or more. The list shows a part of the results.
# Tested on: Plasmodium falciparum
# Experiment: Primary screen in NF54 nanoGlo assay, in single point, at 2uM, 72h; a lower Z score goes with more inhibition
# Type: functional, Erythrocyte
# Details: timepoint 72 hour
SMILES,% Inhibition [%],Z score
Cc1n[nH]c(C)c1CCCN[C@@H](C)CN1CCCCCC1,-11,2.17
CNC(=O)Cn1c(=O)n(Cc2ccco2)c2ccc(C(F)(F)F)cc21,-9,1.5
O=C(c1ccsc1)N1CC(n2ccnn2)C1,-11,2.08
Cc1nc(C(C)(C)NC(=O)[C@@H]2COCCO2)sc1C,-9,0.97
CN(CCc1ccccc1F)C(=O)c1nc(=O)[nH][nH]1,3,-0.45
CN1CCN(S(=O)(=O)N2CCN(C(=O)CCc3cccc(F)c3)CC2)CC1,-9,1.03
CCn1ccc(-c2c(-c3ccccc3)ncn2CCN(C)S(C)(=O)=O)n1,-6,0.99
C=CCNC(=O)O[C@@H]1CC[C@]2(C)C(CC[C@@H](O)[C@H]2CC(=O)N2CCC[C@H]2CO)[C@]1(C)CO (stereo partly drawn),-1,0.15
COc1ccc(NC(=O)OCC(F)(F)C(F)F)cc1Cl,-9,1.25
Cc1cccc(CN(Cc2ccccn2)c2ncnc3c2ncn3C)c1,-8,1.23
Cc1ccc2nc(-c3ccc(N(C)C)cc3)sc2c1,-6,0.72
COc1ccc2cc([C@@H]3CN(Cc4nnc(C5CC5)o4)CCO3)ccc2c1,-10,1.44
Cc1cc(C)cc(CN2CCCN(c3ccc(C)cc3NS(=O)(=O)c3ccc(Cl)cc3)C2=O)c1,-5,0.69
CC(C)Oc1ccc(C(=O)NCc2ccc(-c3cccnc3)nc2)cc1,0,0.01
C[C@@H](CNC(=O)NC1CCN(Cc2ccccc2)CC1)N1CCc2ccccc21,1,-0.12
O=C(c1cnc(O[C@H]2CCOC2)c(Cl)c1)N1CCN(C(=O)c2ccco2)CC1,3,-0.52
CCCCn1nnnc1CN1CC(C)OC(C)C1 (stereo not drawn),11,-2.09
CCc1nsc(N2CCC[C@H](c3nc(-c4ccc(F)cc4)no3)C2)n1,-12,1.59
COC(=O)CN(CC(N)=O)[C@H](C)c1ccccc1,0,-0.04
C#CCOC[C@@H](O)CN(Cc1c(-c2ccccc2)nn(C)c1Oc1ccc(F)cc1F)CC(C)C,-13,2.38
C[C@H](OC(=O)c1cccnc1)C(=O)Nc1ccc(S(=O)(=O)N2CCOCC2)cc1,3,-0.56
CC(NC(=O)[C@H]1OCC[C@H]1C)C1CCN(Cc2ccccc2)C1 (stereo partly drawn),-6,0.66
O=C(NC[C@H]1CCN(c2ccccc2F)C1)C1(N2CCCC2)CCCCC1,0,-0.04
O=S1(=O)CC2CN(Cc3ccccc3)CC(C1)C2(F)F,0,0.07
CCCc1ccc(OCCNC(=O)[C@H]2C[C@H]3C=C[C@@H]2C3)cc1,-9,1.09
CC(NC(=O)C(C)(C)C)C(=O)N1CCOCC(C2CCC2)C1 (stereo not drawn),-15,2.03
O=C(NCc1cn2c(n1)C(=O)N(Cc1ccccc1)CC2)c1cccnc1,4,-0.59

SMILES,% Inhibition [%],Z score
CN(CCN1CCN(S(=O)(=O)Cc2ccon2)CC1)Cc1ccc(F)cc1,9,-0.95
CC1(C)CCCC[C@@H]1C(=O)NCCS(N)(=O)=O,4,-0.71
CCN1CC(=O)N(Cc2cc(C)cs2)C1=O,-8,0.79
COC(=O)Cn1ccc(N[C@@H](C)c2nc3ccccc3o2)n1,-7,0.59
COCCn1ccnc1C1CCN(c2cc(C(F)(F)F)cc(C)n2)CC1,5,-0.78
CCC(CC)C(=O)Nc1cccc(Br)c1,-2,0.27
Cc1cnc(Cn2cnc(-c3ccccc3)c2COCc2ccccc2)cn1,-7,1.37
CCCN(CC(N)=O)C1CC(OCC)C1(C)C (stereo not drawn),-10,1.45
O=C(Nc1ccc(-n2cnnn2)cc1)[C@@H]1CC=CCC1,-12,0.98
O=C1N(C2CCCCC2)C[C@H]2CN(Cc3cccs3)CCN12,10,-1.11
CN1C[C@@H]2CN(C(=O)c3cccc(-n4ccnn4)c3)C[C@]2(C)C1,-13,2.25
CN(Cc1cnccn1)c1nc2ccccc2[nH]1,-10,1.01
c1ccc(-c2nsc(N3CC[C@H](N4CCCC4)C3)n2)cc1,-1,0.2
CN(C)[C@@H](C(=O)Nc1ccc(CC(N)=O)cc1)c1c(F)cccc1F,0,0.05
CC(=O)N[C@H]1[C@H](Oc2ccc(Cl)cc2Cl)O[C@@H]2COC(C)(C)O[C@H]2[C@@H]1O,-6,0.74
O=C1CC[C@H](C(=O)N2CCC3(CCCCC3)C2)CN1,-1,0.07
CC1CN2CCCC2CN1S(=O)(=O)c1c(F)cccc1F (stereo not drawn),28,-3.22
Cn1c(=O)c(-c2ccc(C(=O)Nc3ccc(OC(F)(F)F)cc3)cc2)nc2cccnc21,-6,0.95
O=C(NCc1ccc(F)cc1)c1cnc(-c2ccc(F)cc2)nc1N1CCC(Cc2ccccc2)CC1,-9,0.92
CC(C)=CCN1CC[C@]2(CCCO2)CCC1=O,28,-5.83
Cn1c(=O)c2ccn(CC(=O)N3CCCC3)c2n(C)c1=O,-8,0.76
CCOC(=O)NC[C@@H]1C[C@H](F)CN1C(=O)CCc1nc2ccccc2[nH]1,16,-2.12
CC1=CCCN(Cc2nc(C(F)F)no2)C1,2,-0.24
CCN(C(=O)c1ccc(COC)cc1)c1ccc(Br)cn1,-10,1.29
N#Cc1ccccc1N1CCN2c3ccc(C(F)(F)F)cc3CC(C(=O)NC3CCCCC3)C2C1 (stereo not drawn),-4,0.51
O=C(c1cc[nH]c1C1CC1)N1CCC(c2nc(=O)[nH][nH]2)CC1,6,-1.06
Fc1ccc(Oc2cc(N3CCC(N4CCCCC4)CC3)ncn2)c(F)c1,14,-2.12
